# In all, about 340,000 compounds went through this assay and about 6,900 (2%) were called active. Rule as the data show it: active = inhibition above about 30%; inactive = below that, where a call was filed. Only a part is listed here, and it is no random draw. Entries without a call were filed so in the source.
# Biological target: D(2) dopamine receptor (Homo sapiens) (UniProt P14416)
# Assay: HTS Assay for Allosteric Antagonists of the Human D2 Dopamine Receptor: Primary Screen for Antagonists; also: 0% is about no effect
# Conditions: HEK293 TREx D2 cells, calcium flux, dopamine EC80; at 10 µM; stronger effect = higher value
# In short: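 Tetracycline-induced HEK293 T-REx cells expressing D2 force-coupled to calcium signalling were dye-loaded, exposed to compound for 180 s, then challenged with an EC80 of dopamine; calcium flux was followed kinetically for a further 180 s.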
# UniProt P14416, sequence (P14416 whole entry, looked up): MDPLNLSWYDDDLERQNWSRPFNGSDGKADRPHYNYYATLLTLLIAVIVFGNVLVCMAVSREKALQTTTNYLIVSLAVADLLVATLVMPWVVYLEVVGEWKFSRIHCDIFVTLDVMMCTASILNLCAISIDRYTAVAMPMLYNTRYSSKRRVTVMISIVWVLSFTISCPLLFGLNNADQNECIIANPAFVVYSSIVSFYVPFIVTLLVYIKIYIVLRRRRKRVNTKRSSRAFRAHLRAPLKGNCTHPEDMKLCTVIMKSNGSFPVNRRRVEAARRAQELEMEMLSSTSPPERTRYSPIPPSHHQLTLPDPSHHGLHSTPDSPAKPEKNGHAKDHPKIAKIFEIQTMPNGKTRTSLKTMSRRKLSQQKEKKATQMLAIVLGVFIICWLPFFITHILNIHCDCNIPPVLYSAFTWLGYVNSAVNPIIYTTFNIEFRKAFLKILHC
row,Compound,inhibition
1,O=C(CCC1N=C2c3ccccc3N=C(SCc3ccc(F)cc3)N2C1=O)NCc1ccc(F)cc1 (centres undefined),17.7%
2,COc1ccc(-n2c(=O)c3c(c4cc(OC)ccc4n3C)n(Cc3cccc(OC)c3)c2=O)cc1,-1.02%
3,COc1ccc(-c2cc3nc(C)c(CCC(=O)Nc4ccccc4C(C)=O)c(C)n3n2)c(OC)c1,-10.1%
4,CCc1cccc(C)c1NC(=O)Cn1ccn(-c2cccc(OC)c2)c(=O)c1=O,1.37%
5,Cc1cccc(Cn2c(SCc3ccc(C(=O)NCCc4ccccc4)cc3)nc3ccncc32)c1,9.37%
6,O=C(CCc1nc(CN2CCN(S(=O)(=O)c3ccc(Cl)cc3)CC2)no1)N1CCCCC1,3.9%
7,O=C(CSCc1cccc(F)c1)NCc1ccccc1,-4.65%
8,Fc1cccc(-n2ncc3c2ncn2nc(COc4ccc(Cl)cc4)nc32)c1,-24.5%
9,COc1ccc(Cl)cc1NC(=O)CSc1nccn1Cc1ccco1,-16.5%
10,Cc1csc2nc(COC(=O)c3ccccc3NC(=O)c3ccc(F)cc3)cc(=O)n12,13.2%
11,CCc1ccc(CN2C(=O)c3ccccc3C2C(=O)NCCc2ccc(OC)c(OC)c2)cc1 (centres undefined),8.93%
12,CN(CC(=O)Nc1cccc(C(F)(F)F)c1)S(=O)(=O)c1ccc2[nH]c3c(c2c1)CCCC3,-0.501%
13,COc1cccc(NC(=O)CSc2nc3ccccc3nc2N2CCOCC2)c1,-4.96%
14,CCCN(C(=O)CCc1nc(-c2ccccc2F)no1)c1ccc(CC)cc1,13%
15,COc1ccc(NC(=O)c2cc3c(=O)[nH]c4ccccc4c3n2C)cc1Cl,-3.73%
16,COc1ccc(CC(=O)NCc2nc3cccnc3n2Cc2ccc(F)cc2)cc1OC,12%
17,Cc1ccc(C)c(N2CCN(C(=O)c3ccc(CS(=O)(=O)c4ccc(Br)cc4)o3)CC2)c1,1.99%
18,CCOc1cc2[nH]c(=O)n(Cc3ccc(C(=O)NCCN(CC)CC)cc3)c(=O)c2cc1OCC,0.833%
19,Cc1ccccc1NC(=O)c1sc2nc3c(cc2c1N)CCCC3,13.4%
20,COc1cc(C2CC(=O)c3c([nH]c(C(=O)OC4CCCCC4)c3C)C2)cc(OC)c1OC (centres undefined),10.5%

row,Compound,inhibition
1,CCCCn1c2ccc(F)cc2c2nnc(SCCN(CC)CC)nc21,-11.1%
2,Cc1ccc(CNC(=O)c2c3c(nc4ccccc24)C(=O)N(C2CCCCC2)C3)cc1,3.34%
3,Cc1ccc(C(=O)Nc2ccc3c(c2)OCO3)cc1NC(=O)c1ccco1,active: 47.7%
4,CCOC(=O)c1cc(S(=O)(=O)N2CCN(c3ccc(OC)cc3)CC2)[nH]n1,8.13%
5,Cc1cccc(C)c1OCc1nc2c3cnn(-c4cccc(F)c4)c3ncn2n1,3.56%
6,COc1ccc(CCNC(=O)CCCn2c(=O)c3ccccc3n(Cc3ccccc3C)c2=O)cc1OC,-6.44%
7,Cc1ccc(Nc2c(-c3ccc(N4CCOCC4)cc3)nc3ncccn23)cc1,-16.3%
8,Cc1ccc(C(=O)Nc2c(C(=O)NCc3ccc(Cl)cc3)sc3nc(C)cc(C)c23)cc1,9.21%
9,CCN(C(=O)c1oc2ccc(S(=O)(=O)N3CCCCCC3)cc2c1C)c1ccccc1,23.6%
10,CCOC(=O)c1cccc(NC(=O)CN2C(=O)CC(C)(C)Sc3ccccc32)c1,13.8%
11,O=C1C(=O)N(C2CCN(S(=O)(=O)c3ccc(F)cc3)CC2)CCN1Cc1ccccc1,5.14%
12,Cc1cccc(NC(=O)N2CCC(CN3CCc4ccccc4C3)CC2)c1C,-22.2%
13,CN1C(=O)C(C)(C)c2cc(S(=O)(=O)NCc3ccc(C(=O)Nc4ccc(Cl)cc4)cc3)ccc21,-0.246%
14,CCOc1ccc(NC(=O)Cn2cc(C(=O)c3ccc(C)c(C)c3)c(=O)c3cc4c(cc32)OCCO4)cc1,10.7%
15,O=S(=O)(NCc1cccc(Br)c1)c1ccc(-c2cc(C(F)(F)F)on2)s1,10.4%
16,COc1ccccc1CNC(=O)CN1C(=O)COc2ccc(S(=O)(=O)N3CCCCC3)cc21,-8%
17,COc1ccc(C(=O)Nc2ccc3nc(SCC(=O)N4CCCc5ccccc54)sc3c2)cc1,11%
18,COC(=O)c1sccc1S(=O)(=O)N(CC(=O)NCc1ccc(C)cc1)c1ccc(Cl)cc1,12.6%
19,COC(=O)CN1C(=O)CSc2ccc(S(=O)(=O)N3CCOCC3)cc21,-3.94%
20,CCN(CC)C(=O)c1sc2c(c1C)c(=O)n(-c1ccc(Cl)c(Cl)c1)c(=O)n2Cc1cc(=O)n2c(C)cccc2n1,9.47%

row,Compound,inhibition
1,CCCCn1cc(S(=O)(=O)c2ccc(OC)cc2)c(=O)c2cc(F)c(N3CCCC3)cc21,-4.1%
2,Cc1ccc(Sc2ccc(CN3CCCC3)cc2[N+](=O)[O-])cc1,active: 36.4%
3,Cc1ccc(-c2nc(C)c(CCNS(=O)(=O)c3ccccc3F)s2)cc1,2.02%
4,COc1ccc(-n2nc(C(=O)Nc3cccc(C(F)(F)F)c3)c3c4ccccc4n(C)c3c2=O)cc1,-2.53%
5,Cc1ccccc1NC(=O)CSC1=Nc2ccccc2C2=NC(CCC(=O)NCc3ccccc3)C(=O)N12 (centres undefined),-0.676%
6,Cc1nn(CC(=O)NCc2ccccc2Cl)c(=O)c2nn(-c3ccccc3)c(C)c12,8.59%
7,Cc1nc(CC(=O)Nc2ccc(N(C)C)cc2)cs1,6.7%
8,CCc1ccc(-n2nc(C)c3c(C(=O)Nc4cc(OC)cc(OC)c4)cc(C)nc32)cc1,10.1%
9,CCOc1ccc(-c2nc(SCC(=O)NCCOC)c(-c3ccc(OC)c(OC)c3)[nH]2)cc1,-4.24%
10,CCN(CC(=O)Nc1cc(Cl)ccc1C)C(=O)COc1cccc2c1OC(C)(C)C2,active: 43.2%
11,Cc1cc(C)cc(NC(=O)CSc2nc(-c3cccc(Cl)c3)nc3c2Cc2c(CO)cnc(C)c2O3)c1,-18.2%
12,CSc1nc2sc3c(c2c(=O)n1-c1ccc(F)c(Cl)c1)CCN(C(C)=O)C3,9.27%
13,COc1ccc(CNC(=O)Cn2c(SCC(=O)Nc3ccc(C)c(C)c3)nc3ccccc32)cc1,-3.73%
14,CCOc1ccc(NC(=O)CSc2nnc(C3CC3)n2C)cc1S(=O)(=O)N1CCCCC1,active: 43.8%
15,COc1ccc(S(=O)(=O)NCCc2csc(-c3ccc(F)cc3)n2)cc1,-1.11%
16,Cc1cc(C)cc(OCC(=O)Nc2ccc(S(=O)(=O)Nc3onc(C)c3C)cc2)c1,-0.893%
17,CCC(C)C(NC(N)=O)C(=O)NC1CCC(C)CC1 (centres undefined),active: 32.9%
18,O=C(CSC1=Nc2ccccc2C2=NC(Cc3ccccc3)C(=O)N12)Nc1ccccc1F (centres undefined),0.878%
19,CCOC(=O)NC1(C(F)(F)F)NC(=O)N(c2ccc(C)c(C)c2)C1=O (centres undefined),24.8%

# — PubChem BioAssay AID485344 (National Center for Advancing Translational Sciences (NCATS), 2010)
